PubChem BioAssay AID686978 (National Center for Advancing Translational Sciences (NCATS), 2013)
Hit rate of the full screen: of about 420,000 compounds, about 64,000 (15%) were called active. Inconclusive means that the source gave no clear call. Such entries were picked first, then a sample of the others. The call rests on the fitted dose curve; in most records, active means well fitted inhibition curve with a large enough effect; inconclusive means small, poorly fitted or top-dose-only effect; inactive means flat fitted curve, though single readings scatter. No potency is given beside an inconclusive call; the fits are too rough.

experiment: qHTS for Inhibitors of human tyrosyl-DNA phosphodiesterase 1 (TDP1): qHTS in cells in absence of CPT; settings: DT40 Tdp1-/- hTDP1 cells, no CPT, ATP luminescence, 48 h; activity change, negative = growth inhibition: at 46.2 µM (top of the series) unless noted; further: nearly all actives have a fitted effect of over 55% in size
Summary of the method: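 Chicken DT40 Tdp1-/- cells complemented with human TDP1, screened without camptothecin (DMSO vehicle only), 400 cells/well. Compounds pin-transferred, cells incubated at 37 °C for at least 48 hr. Growth read as ATP-dependent luminescence (CellTiter-Glo, 30 min at RT).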
On the % scale 0 is the no-effect control and ±100 the full control effect; potency means the concentration at half of the fitted maximal effect; tags describe the fitted curve by direction and shape.

Question: Which Potency does the source give for CN(C)c1ccc(Nc2ncnc3c2c(-c2ccccc2)cn3-c2cccc(Cl)c2)cc1 here?
Answer: inconclusive [inhibitor, single point]

Question: For CC(C)C[C@H]1COCCS(=O)(=O)N1Cc1ccc(Cl)c(Cl)c1, which Potency is on record?
Answer: inconclusive [inhibitor, single point]

Question: Which Potency does the source give for CCCCn1c(/N=C/c2ccc(N(C)C)cc2)nc2ccccc21 here?
Answer: inactive

Question: With Cc1ccc(C)c(OCC(=O)NNC(=O)CSC(=S)N2CCCC2)c1 as the compound, how does the Potency read?
Answer: inactive

Question: For CN(CC(=O)Nc1sccc1C(N)=O)S(=O)(=O)c1ccc(Cl)cc1, which Potency is on record?
Answer: inconclusive [inhibitor, single point]

Question: Which Potency does the source give for COc1cc2nc(-c3ccc(Br)o3)oc(=O)c2cc1OC here?
Answer: inconclusive [inhibitor, single point]

Question: For Cc1cccnc1NC(=O)CSc1ncnc2sc(C)c(C)c12, which activity change, negative = growth inhibition is on record?
Answer: inconclusive: -31.3% [inhibitor]

Question: With COc1ccc(N2C(=O)C(Cl)=C(Nc3ccccc3O)C2=O)cc1 as the compound, how does the Potency read?
Answer: inconclusive [inhibitor, partial curve, poor fit]

Question: Which Potency does the source give for Cc1nc(-c2ccc(F)cc2)sc1CCNC(=O)Cc1ccc(F)cc1 here?
Answer: inconclusive [inhibitor, single point]

Question: For Cc1c(C(=O)NCCN(C)C)oc2c1-c1nn(Cc3cccc(Cl)c3)cc1CC2, which Potency is on record?
Answer: inconclusive [inhibitor, single point]

Question: For COC(=O)c1ccccc1NS(=O)(=O)c1cc2c(cc1C)N(C)CCO2, which Potency is on record?
Answer: inconclusive [inhibitor, single point]

Question: Which Potency does the source give for O=C(NCCS(=O)(=O)N1CCN(c2ccccc2)CC1)C1CC1 here?
Answer: inactive

Question: Which Potency does the source give for N#C/C(=C\c1ccc(-c2nc3ccccc3s2)o1)C(N)=O here?
Answer: active: 18.4 µM

Question: For COc1ccc(/C=N/n2c(=O)[nH]c3c([nH]c4ccc(C)cc43)c2=O)cc1CN1CCOCC1, which Potency is on record?
Answer: inconclusive [inhibitor, single point]

Question: Which activity change, negative = growth inhibition does the source give for Cc1cc(C)c2cc(C)c3nnc(SCC(=O)NCc4ccc5c(c4)OCO5)n3c2c1 here?
Answer: inconclusive: -31% [inhibitor]

Question: With O=C(CCC(=O)OCC(=O)c1ccc([N+](=O)[O-])cc1)Nc1ccccc1Cl as the compound, how does the Potency read?
Answer: inconclusive [inhibitor, single point]

Question: For C[C@H](CO)N1C[C@H](C)[C@@H](CN(C)S(=O)(=O)c2ccccc2)Oc2ccc(NS(=O)(=O)c3cccs3)cc2C1=O, which Potency is on record?
Answer: inactive

Question: For Cc1cccc(S(=O)(=O)c2cn(Cc3ccccc3)c3cc(N4CCCCC4)c(F)cc3c2=O)c1, which Potency is on record?
Answer: inconclusive [inhibitor, single point]

Question: For CCOC(=O)C(=O)c1c(C)cc2ccccn12, which Potency is on record?
Answer: inactive

Question: With Nc1c2c(nc3ccc(Br)cc13)N(Cc1ccccc1)CC2 as the compound, how does the Potency read?
Answer: active: 20.6 µM

Question: With O=C(NC1CCCC1)C(c1cccs1)N(C(=O)c1csnn1)c1ccccc1F (centres undefined) as the compound, how does the Potency read?
Answer: inconclusive [inhibitor, partial curve, poor fit]

Question: Which Potency does the source give for Cc1cc(C)c(NC(=O)Nc2ccc3c(c2)OCO3)c(C)c1 here?
Answer: inconclusive [inhibitor, partial curve]

Question: For O=C(OCC(=O)C12CC3CC(CC(C3)C1)C2)c1ccc(O)cc1, which Potency is on record?
Answer: inconclusive [inhibitor, partial curve, poor fit]

Question: For COc1ccc(-c2nc3sc(CCNC(=O)c4ccc(Br)o4)c(C)n3n2)cc1, which Potency is on record?
Answer: active: 16.4 µM

Question: With O=C(NCCc1c[nH]c2ccccc12)c1ccc(F)cc1F as the compound, how does the Potency read?
Answer: inconclusive [inhibitor, partial curve]

Question: With Cc1ccn2c(CN(C)CCn3nc(C)cc3C)c(C(=O)N3CCCCCC3)nc2c1 as the compound, how does the Potency read?
Answer: inconclusive [inhibitor, single point]

Question: With COc1ccc(C(c2sc3ncnn3c2O)N2CCN(c3ccccc3F)CC2)cc1OC (centres undefined) as the compound, how does the Potency read?
Answer: active: 20.6 µM

Question: Which Potency does the source give for Cc1cccc(NC(=O)C2CCN(C(=O)N3CCOc4ccccc43)CC2)c1C here?
Answer: inconclusive [inhibitor, single point]

Question: For OCCN(Cc1cccnc1)Cc1ccccn1, which Potency is on record?
Answer: inconclusive [inhibitor, partial curve]

Question: With CCOC(=O)C1(CC2CCCCO2)CCN(Cc2nc(C(C)C)cs2)CC1 (centres undefined) as the compound, how does the Potency read?
Answer: inconclusive [inhibitor, single point]

Question: With COC(=O)C[C@@H]1CC[C@H](NS(=O)(=O)c2ccccc2F)[C@@H](CO)O1 as the compound, how does the Potency read?
Answer: inactive

Question: For CCN(CC)C(=O)c1c(-c2ccccc2)c(-c2ccccc2)nn(CC)c1=O, which Potency is on record?
Answer: inconclusive [inhibitor, partial curve, poor fit]

Question: For CC1=C/C(=N\S(=O)(=O)c2ccccc2)C(C(C)C)=CC1=O, which Potency is on record?
Answer: inconclusive [inhibitor, single point]

Question: Which Potency does the source give for CC(C)CN1C(=O)CN(S(C)(=O)=O)CC1(C)C(=O)Nc1ccc2c(c1)OCCO2 (centres undefined) here?
Answer: inactive

Question: For CC(=O)Nc1ccc(S(=O)(=O)NCCc2cn3nc(C)c(C)nc3n2)cc1, which Potency is on record?
Answer: inactive

Question: With CC(=O)NCCc1nc2ccccc2n1CCOc1ccc(C)cc1 as the compound, how does the Potency read?
Answer: inconclusive [inhibitor, single point]

Question: Which Potency does the source give for COc1ccc(Nc2c3c(nc4ccc(C)cc24)CCC3)cc1 here?
Answer: inconclusive [inhibitor, partial curve]

Question: With Cc1cccc(N(Cc2ccccc2)C(=O)CN2C(=O)NC3(CCCC3)C2=O)c1 as the compound, how does the Potency read?
Answer: inconclusive [inhibitor, single point]

Question: Which Potency does the source give for O=C(c1cccc(S(=O)(=O)N2CCc3ccccc32)c1)N1CCN(c2ccccn2)CC1 here?
Answer: active: 23.1 µM

Question: Which Potency does the source give for COC(=O)c1ccc(NC(=O)C(=O)N2CCN(C(=S)Nc3ccc(OC)cc3)CC2)cc1 here?
Answer: inconclusive [inhibitor, single point]

Question: With CCC(C)NC(=O)C1(NC(=O)Nc2ccccc2)CCCCC1 (centres undefined) as the compound, how does the Potency read?
Answer: active: 18.4 µM

Question: With NNC(=O)c1ccc(Cl)cc1Cl as the compound, how does the Potency read?
Answer: inactive

Question: Which Potency does the source give for CCN(CC)CCNC(=O)c1ccc(NC(=O)C2CCN(c3ncnc4sc(C)c(C)c34)CC2)cc1 here?
Answer: active: 23.1 µM

Question: With O=C(c1ccccc1F)N1CCN(C(=O)C(c2ccccc2)c2ccccc2)CC1 as the compound, how does the Potency read?
Answer: inconclusive [inhibitor, single point]

Question: Which Potency does the source give for CN1[C@@H]2CC(OC(=O)[C@H](CO)c3ccccc3)C[C@H]1[C@@H]1O[C@@H]12 (some centres undefined) here?
Answer: inactive

Question: Which Potency does the source give for NNC(=O)c1n[nH]c2c1CC(C1CCCCC1)CC2 (centres undefined) here?
Answer: active: 5.8 µM

Question: Which Potency does the source give for CC(C)(C)OC(=O)N1CCC(c2c(C(=O)NC3CCCCC3)cnn2-c2ccc(F)cc2F)CC1 here?
Answer: inconclusive [inhibitor, single point]

Question: For Cc1ccc(N(CC(=O)Nc2cccc(Cl)c2C)S(C)(=O)=O)cc1, which activity change, negative = growth inhibition is on record?
Answer: inconclusive: -30.8% [inhibitor]

Question: With O=C(c1cccc(NS(=O)(=O)c2ccccc2)c1)N1CCN(c2ccccc2)CC1 as the compound, how does the Potency read?
Answer: inconclusive [inhibitor, single point]

Question: With CCOC(=O)N1CCN(c2ccc(C(C)=O)cc2F)CC1 as the compound, how does the Potency read?
Answer: inactive

Question: For CC(=O)c1ccc(N(C)C)cc1, which Potency is on record?
Answer: inactive

Question: For Cc1cc(C)c2nc(SCC(=O)NCCN3C(=O)CSC3=O)cc(C)c2c1, which Potency is on record?
Answer: inconclusive [inhibitor, single point]

Question: Which Potency does the source give for O=C1c2cccc3cccc(c23)C(=O)N1CC1CCN(CC(O)COCc2ccc3c(c2)OCO3)CC1 (centres undefined) here?
Answer: inconclusive [inhibitor, single point]

Question: With O=C1NCCN(Cc2ccc(Cl)c(F)c2)C1CC(=O)N1CCc2ccccc2C1 (centres undefined) as the compound, how does the Potency read?
Answer: inconclusive [inhibitor, partial curve, poor fit]

Question: For Cc1ccc(S(=O)(=O)C(CNS(=O)(=O)c2cc(F)ccc2F)c2cccs2)cc1 (centres undefined), which Potency is on record?
Answer: inconclusive [inhibitor, partial curve]

Question: Which Potency does the source give for Cc1cc(C)n(-c2nnc(C)n2/N=C/c2ccco2)n1 here?
Answer: inactive

Question: With COc1cc(CNC(=O)c2cnc(SC)nc2-c2ccccc2)cc(OC)c1OC as the compound, how does the Potency read?
Answer: inconclusive [inhibitor, single point]

Question: With O=C(COC(=O)C1CCN(S(=O)(=O)c2ccccc2C(F)(F)F)CC1)NCc1ccc(F)cc1 as the compound, how does the Potency read?
Answer: inactive

Question: With CSc1ccccc1NC(=O)CCS(=O)(=O)c1nc(-c2ccc3c(c2)OCO3)cc(C(F)(F)F)n1 as the compound, how does the Potency read?
Answer: active: 18.4 µM

Question: Which Potency does the source give for C[C@H](CO)N1C[C@H](C)[C@H](CN(C)CC2CCCCC2)Oc2ccc(NS(=O)(=O)c3ccc(F)cc3)cc2CC1=O here?
Answer: inconclusive [inhibitor, single point]

Question: For CC(NCCOCCOc1ccccc1)c1ccccc1 (centres undefined), which activity change, negative = growth inhibition is on record?
Answer: inconclusive: -33.8% [inhibitor]

Question: With COc1ccc(NC(=O)C2C(c3ccc4c(c3)OCO4)=Nc3ccccc3N2C(=O)c2cccc(C(F)(F)F)c2)cc1 (centres undefined) as the compound, how does the Potency read?
Answer: inconclusive [inhibitor, single point]

Question: For CN(C)CCNC(=O)/C=C/c1cn(-c2ccccc2)nc1-c1cc2ccccc2oc1=O, which Potency is on record?
Answer: inactive

Question: For CCN1CCN(c2oc(-c3ccc(COc4ccccc4C)o3)nc2C#N)CC1, which Potency is on record?
Answer: inconclusive [inhibitor, single point]

Question: With CC/C(Cc1ccccc1)=N/NC(=O)CCn1nnc2ccccc21 as the compound, how does the Potency read?
Answer: inactive

Question: With Cc1ccc(-c2noc(CCCC(=O)NC3CCCCC3)n2)cc1 as the compound, how does the Potency read?
Answer: active: 13 µM

Question: For Cc1cc(Br)cn2c(Cc3ccccc3)c(-c3cccc(Br)c3)nc12, which Potency is on record?
Answer: inconclusive [inhibitor, single point]

Question: Which Potency does the source give for CC(/C=C/c1ccc(Cl)o1)=C\C(=O)O here?
Answer: inactive

Question: Which Potency does the source give for O=C(Cc1cccc(NC(=O)C2CCN(C(=O)C3CCCCC3)CC2)c1)Nc1cccc(C(=O)N2CCCC2)c1 here?
Answer: inconclusive [inhibitor, single point]
